Over roughly 110,000 compounds, “z-score” has its median near -0.1; the highest 2% begin near 2. This is one part of the list. Activity calls are given as the source filed them.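 Rule for the calls: active = z-score in the third read window above 3 or below -3; inactive = the rest.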
What follows are compounds tested against Metabotropic glutamate receptor 8 (Rattus norvegicus) (UniProt P70579) (assay: mGluR8 Gi/Go-coupled signaling modulation – cell-based, rat, thallium flux, HTS, primary screen (AID 488969)). Details: HEK293 rat mGluR8, GIRK (G protein-gated inwardly rectifying potassium channel) thallium flux, FluoZin2; at 10 µM; stronger effect = higher value; submaximal glutamate (EC20) added with thallium.
Chain of UniProt P70579 (P70579 whole entry, looked up): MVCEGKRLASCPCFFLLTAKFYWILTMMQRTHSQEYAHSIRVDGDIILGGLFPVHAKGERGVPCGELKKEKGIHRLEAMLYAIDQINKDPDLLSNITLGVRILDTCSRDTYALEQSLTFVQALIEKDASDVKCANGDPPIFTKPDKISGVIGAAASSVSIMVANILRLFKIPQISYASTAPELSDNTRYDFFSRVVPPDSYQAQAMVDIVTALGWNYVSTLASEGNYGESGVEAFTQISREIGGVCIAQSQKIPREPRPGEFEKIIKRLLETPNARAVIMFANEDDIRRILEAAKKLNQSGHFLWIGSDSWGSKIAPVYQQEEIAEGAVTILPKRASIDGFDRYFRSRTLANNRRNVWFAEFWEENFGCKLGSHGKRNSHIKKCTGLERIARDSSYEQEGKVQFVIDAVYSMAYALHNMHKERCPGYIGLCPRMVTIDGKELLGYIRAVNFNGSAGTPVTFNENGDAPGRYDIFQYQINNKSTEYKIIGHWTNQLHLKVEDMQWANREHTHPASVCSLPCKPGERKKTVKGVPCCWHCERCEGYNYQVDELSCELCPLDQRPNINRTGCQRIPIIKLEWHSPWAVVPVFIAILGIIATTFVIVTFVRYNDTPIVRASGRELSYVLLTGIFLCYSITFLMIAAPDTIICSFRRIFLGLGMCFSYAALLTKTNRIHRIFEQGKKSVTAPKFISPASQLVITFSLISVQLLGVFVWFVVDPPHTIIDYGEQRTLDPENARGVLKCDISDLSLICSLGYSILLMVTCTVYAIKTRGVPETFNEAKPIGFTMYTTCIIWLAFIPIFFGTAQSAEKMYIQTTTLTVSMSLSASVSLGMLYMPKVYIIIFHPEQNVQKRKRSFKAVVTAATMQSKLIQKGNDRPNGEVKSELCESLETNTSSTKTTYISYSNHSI

| Structure (SMILES) | z-score |
| --- | --- |
| O=C(Nc1cccc(Cl)c1)N(CCCN1CCOCC1)Cc1ccccc1F | -0.357 |
| O=C(Nc1cc(Sc2ccccn2)cc([N+](=O)[O-])c1)c1ccc(Cl)cc1 | -0.325 |
| CCOC(=O)CSc1n[nH]c(-c2ccco2)n1 | -0.251 |
| Cc1ccc(N=Cc2c(O)n(C)c(=O)n(C)c2=O)nc1 | -0.0916 |
| CCCn1c(=O)c(C(=O)NNS(=O)(=O)c2ccc(Cl)cc2)c(O)c2ccccc21 | 0.127 |
| COc1ccc(/C=N/NC(=O)C(=O)N2CCN(c3ccccc3OC)CC2)cc1 | -0.0857 |
| C=CCc1cccc(/C=N/NC(=O)CNc2ccccc2)c1O | 0.231 |
| O=C(CN1N=C(c2ccccc2)CCC1=O)NCc1ccco1 | 1.01 |
| Cc1ccc(C(NC(=O)NC(C)c2ccccc2)C(Cl)(Cl)Cl)cc1F (configuration not stated) | -0.523 |
| CN(CC(=O)Nc1cccc2ccccc12)C(=O)/C=C/c1cccs1 | -0.0222 |
| O=C(N/N=C1/CCCc2ccccc21)C(c1ccccc1)c1ccccc1 | -0.174 |
| CCC1CCCCN1C(=S)NCc1ccccc1 (configuration not stated) | -0.193 |
| COc1ccc(Nc2nc(C)cc(C)c2C(N)=O)c(OC)c1 | -0.0437 |
| CSC1=NCCN1C(=O)COc1ccccc1 | -0.13 |
| Cc1ccc(-c2noc(CCC(=O)NCCc3ccccc3Cl)n2)cc1 | -0.158 |
| Cc1onc(-c2ccccc2Cl)c1C(=O)N1CCN(c2ccccc2)CC1 | 0.279 |
| Cc1ccc(-n2c(=S)[nH]c3nc4c(cc3c2=O)COC(C)(C)C4)cc1 | -0.116 |
| Cc1nc(-c2cccc(-c3noc(C)n3)c2)no1 | -0.602 |
| COC(=O)C1CCN(C(c2ccc(OC)c(OC)c2)c2sc3nc(C)nn3c2O)CC1 (configuration not stated) | -0.0312 |
| CCc1ccc(CCC(=O)Nc2sc(C)c(C)c2C(=O)OC)o1 | 0.226 |
| CN(C)S(=O)(=O)N1CCN(C(=O)c2cccs2)CC1 | 0.0197 |
| CCOc1ccc(S(=O)(=O)Nc2ccccc2C(=O)NCC2CCCO2)cc1 (configuration not stated) | -0.197 |
| Cc1cccc(NC(=O)c2sc3nc4c(c(-c5ccco5)c3c2N)CCC4)c1 | 0.0269 |

| Structure (SMILES) | z-score |
| --- | --- |
| COc1ccc(C(=O)N2c3cc4c(cc3C(C)=CC2(C)C)OCO4)cc1 | 0.251 |
| CC1=[N+](C)N(c2ccccc2)C(=O)C1N=Cc1c(Cl)cccc1Cl (configuration not stated) | 0.135 |
| CCCCc1c(O)nc2n(c1=O)CCS2 | -0.493 |
| Cc1ccc(C(=O)Nc2c(-c3cccs3)nc3cc(C)ccn23)cc1 | -0.519 |
| COc1ccc(CN2C(=O)CC(Cc3ccc(C)cc3)C2=O)cc1OC (configuration not stated) | 0.404 |
| COC(=O)c1sccc1NC(=O)c1cc(-c2ccc(C)cc2C)nc2ccccc12 | -0.164 |
| Cn1nc(OCC(N)=O)ccc1=O | 0.11 |
| COCC(C)NCc1cccc([N+](=O)[O-])c1 (configuration not stated) | -0.122 |
| CCOC(=O)c1nn(-c2ccc(Br)cc2)cc1C(=O)c1cccc2ccccc12 | 0.0669 |
| CCN(CCO)Cc1csc2ccc(C(C)(C)C)cc12 | 0.147 |
| CCCN1C(=O)/C(=C/c2cc(C)n(C)c2C)SC1=Nc1ccc(OC)cc1 | -0.188 |
| COc1ccccc1N1CCN(/N=C\c2ccc(C)o2)CC1 | 0.0843 |
| CCNC(=S)NNC(=O)c1cc(CC(C)C)nc2ccccc12 | -0.186 |
| O=C(NNc1ccccc1Br)C(=O)n1ccc2ccccc21 | 2.23 |
| CCn1c(-c2c[nH]c3ccccc23)n[nH]c1=S | -0.0356 |
| Cc1ccc2cc(CN(CC3CCCO3)C(=O)C(C)C)c(=O)[nH]c2c1 (configuration not stated) | -0.391 |
| CC12COC3(C(N)=O)CC1CCC32C (configuration not stated) | -0.0772 |
| O=C(CCCn1c(=S)[nH]c2ccccc2c1=O)N1CCCCC1 | 1.44 |
| C=C(C)Cn1c(=S)[nH]c2ccccc2c1=O | -0.0946 |
| Cn1c(NCc2ccco2)nc2ccccc21 | 0.035 |
| Cc1ccc(S(=O)(=O)N2CCN(c3nc(C)nc4sc(C)c(C)c34)CC2)cc1 | -0.309 |
| CCOC(=O)c1c(NC(=S)Nc2ccccc2)sc2c1CCN(C)C2 | -0.385 |
| O=C(Cn1c(COc2ccccc2)nc2ccccc21)Nc1cccc(Cl)c1 | -0.15 |

| Structure (SMILES) | z-score |
| --- | --- |
| C=CCOC(=O)C1=C(C)Nc2nnnn2C1c1ccc(OC)cc1OC (configuration not stated) | 0.184 |
| CCCOC(=O)c1c(NC(=O)/C=C/c2cnn(C)c2C)sc(C(=O)OC)c1C | -0.156 |
| Cc1cc(C)n2nc(SCC(=O)N/N=C/c3ccc(F)cc3)nc2n1 | -0.137 |
| CC1=C(C(=O)OC2CCCCCCC2)C(c2cc3c(cc2Br)OCO3)CC(=O)N1 (configuration not stated) | -0.174 |
| COc1ccc(C)cc1NC(=O)Cn1cnc2sc(C)c(S(=O)(=O)N3CCOCC3)c2c1=O | 0.412 |
| CCOc1ccc(CSCCNC(=S)Nc2ccccc2)cc1 | 0.112 |
| CCc1cccc(OCCCCNCCOC)c1 | 0.165 |
| CC(=O)Nc1ccc(NC(=O)CN2CCN(c3cccc(C(F)(F)F)c3)CC2)cc1 | -0.345 |
| COc1ccc(CC(=O)OCC(=O)Nc2ccc(Cl)cn2)cc1 | -0.453 |
| Cc1cc(C)nc(N2CCCC(C(=O)Nc3nnc(C)s3)C2)n1 (configuration not stated) | 0.518 |
| Cc1cc(NCCCN2CCOCC2)n2nc(C)c(-c3ccc(F)cc3)c2n1 | 0.303 |
| N#CCCn1cc(/C=N/O)c(-c2ccc(Cl)cc2)n1 | 0.457 |
| COc1cc(/C=N/NC(=O)CCc2c(C)n[nH]c2C)cc(OC)c1OC | -0.524 |
| O=C(O)CSCc1ccc(Cl)cc1 | -0.193 |
| Cc1ccc(NCc2nnc(SCC(N)=O)n2CC2CCCO2)c(C)c1 (configuration not stated) | -0.972 |
| Cc1ccc(-c2nc(CS(=O)CC(=O)NCCN(CC(C)C)CC(C)C)c(C)o2)cc1 (configuration not stated) | 1.56 |
| COc1cccc(-n2c(SCc3cc(=O)oc4cc(O)c(O)cc34)nc3ccccc3c2=O)c1 | -1.01 |
| CC(C)[C@H](NC(=O)NCc1ccc(Cl)cc1)C(=O)O | -0.146 |
| C=CCn1c(=NC(=O)c2ccccc2[N+](=O)[O-])sc2cc(S(C)(=O)=O)ccc21 | -0.065 |
| Cc1c(NC(=O)CSc2nnnn2C)c(=O)n(-c2ccccc2)n1C | -0.861 |
| CC(C)C(=O)Nc1cccc(C(=O)NCCc2ccc(S(N)(=O)=O)cc2)c1 | 0.316 |
| CCCCCC(=O)NNC(=O)c1ccc(-c2ccccc2)cc1 | -0.355 |
| Nn1c(Cc2ccccc2F)nnc1SCC(=O)N1CC(=O)Nc2ccccc21 | -0.206 |

| Structure (SMILES) | z-score |
| --- | --- |
| Clc1ccc(/C=N/NC(=Nc2ccccc2)c2ccccn2)c(Cl)c1 | -0.165 |
| CCCCN(C(=O)CSc1nnc(-c2ccccc2)n1C)c1c(N)n(Cc2ccccc2)c(=O)[nH]c1=O | -0.219 |
| CCOC(=O)Cn1nnnc1CN(Cc1cccs1)Cc1cc2cc(C)cc(C)c2[nH]c1=O | -0.864 |
| COC(=O)c1sc2ccccc2c1NC(=O)c1coc2ccccc2c1=O | 0.603 |
| S=C(NCc1ccco1)Nc1ccc(N2CCOCC2)cc1 | -0.00184 |
| CC(=O)Nc1nnc(CCN2CCCCC2)s1 | -0.424 |
| CC(=O)c1ccc(OC(C)C)c(CSc2nc(O)cc(=O)[nH]2)c1 | -0.0512 |
| CCc1ccc(Cn2nnc(C(=O)NCc3ccccc3OC)c2N)cc1 | 0.172 |
| CC(=O)Nc1ccc(Nc2ccc(S(=O)(=O)C(F)(F)F)cc2[N+](=O)[O-])cc1 | 0.249 |
| CCOc1cc(C)c(Cl)cc1S(=O)(=O)N(CC)CC | 0.127 |
| CN(Cc1ccccc1)C(=O)CN1C(=O)C2C3C=CC(C3)C2C1=O (configuration not stated) | 0.193 |
| CC(C)(C)c1cc(CN2CCC(O)CC2)cc(C(C)(C)C)c1O | 0.942 |
| CCOc1ccc(OCCn2ccnc2)cc1 | -0.316 |
| COc1cccc(CNC(=O)C2CCCN(c3nc4ccccc4o3)C2)c1 (configuration not stated) | -0.0116 |
| Cc1cccnc1NC(=O)CCCN1C(=O)c2ccccc2C1=O | -0.144 |
| Cc1ccc(C(=O)NCCSc2ccc(Cl)cc2)cc1S(=O)(=O)Nc1ccccc1 | -0.43 |
| O=C(OCc1ccccc1Cl)c1ccc(-n2cnnc2)cc1 | 0.0628 |
| COc1ccc(C2CC(c3ccccc3)=NN2C(=O)COC(=O)c2cc(S(=O)(=O)N3CCOCC3)ccc2Cl)cc1 (configuration not stated) | 0.254 |
| CCOc1ccccc1OCCOCCN1CC(C)OC(C)C1 (configuration not stated) | 0.466 |
| CCN(Cc1nc2ccccc2c(=O)[nH]1)Cc1cc(=O)oc2cc(OC)ccc12 | -0.0732 |
| Cc1ccc2occ(CN3CCN(Cc4ccccc4)CC3)c(=O)c2c1 | 0.207 |
| O=C1CN=C(Nc2ccc(Cl)cc2)N1c1ccccc1 | -0.0445 |
| CC12CCC(C(=O)Nc3ccccc3)(C/C1=N\O)C2(C)C (configuration not stated) | -0.345 |

| Structure (SMILES) | z-score |
| --- | --- |
| Cc1ccc(C(=O)C(OC(=O)CCC(=O)Nc2cccc(C)c2)c2ccccc2)cc1 (configuration not stated) | -0.312 |
| O=C(NNC(=O)C1[C@H]2CCCC[C@@H]12)NC1CCCCC1 (some centres not stated) | -0.0928 |
| COC(=O)C(C(=O)Nc1cccc(C)n1)C1CCCCCC1 (configuration not stated) | 1.35 |
| COc1cc(NC(=S)NC(=O)c2ccccc2F)ccc1NC(=O)c1ccco1 | 0.553 |
| O=C(Nc1nccs1)c1cc(S(=O)(=O)N2CCOCC2)c(Cl)cc1Cl | 0.596 |
| CCOc1ccc(NC(C(=O)Nc2cccc(C(C)=O)c2)c2ccccc2)cc1 (configuration not stated) | 0.423 |
| CCOc1cccc(C(=O)Nc2ccccc2N2CCN(C(=O)C(C)C)CC2)c1 | -0.29 |
| Cc1cc(=O)oc(C)c1C(=O)N1CCN(C)CC1 | 0.384 |
| CCN1C(=O)/C(=C/c2cnn(C)c2C)SC1=S | -0.194 |
| CC1=C(C(=O)NC2CCC(C)CC2)C2(CCC(C)CC2)OC1=O (configuration not stated) | -0.759 |
| O=C(Nc1ccc(F)cc1)C1C(c2ccccc2)C1(Cl)Cl (configuration not stated) | 0.315 |
| CC(C)CC(=O)CN1C(=O)C2(OCCO2)c2ccccc21 | active: 6.5 |
| Cc1ccc(NC(=S)N(CCCN2CCOCC2)Cc2ccccn2)cc1Cl | -0.928 |
| CCOC(=O)c1c(CN2CCCCC2C)oc2ccc(OC)cc12 (configuration not stated) | -1.99 |
| COc1ccc(NC(=O)Nc2ccc(N(C)C)cc2)cc1 | -0.0792 |
| COc1ccccc1OCCOc1ccc(C(=O)c2ccccc2)cc1 | 1.04 |
| O=S(=O)(N1CCCCCC1)N1CCN(S(=O)(=O)N2CCOCC2)CC1 | 0.109 |
| CN1CCN(c2ccc(S(=O)(=O)N3CCCCC3)cc2NC(=O)Cc2ccccc2F)CC1 | -0.245 |
| O=C(Nc1ccc2nc3n(c(=O)c2c1)CCCC3)c1ccccc1[N+](=O)[O-] | -0.424 |
| O=C(CCc1nc2cccnc2n1Cc1ccccc1)NCCc1ccc(Cl)cc1 | -0.975 |

Reference: PubChem BioAssay AID488969 (Vanderbilt High Throughput Screening Facility, 2010)
